Measured values as given in paper PMC6919601, “Identification of Plasmodium dipeptidyl aminopeptidase allosteric inhibitors by high throughput screening” (PLoS ONE, 2019).
Where “and” joins values, the source holds several entries; their conditions need not be identical. Equal entries are not always repeated. Among all 110,000 compounds or so, about 230 (0.21%) showed an effect of 50% or more. The list shows a part of the results.

Biological target: DPAP1 (Plasmodium falciparum, UniProt Q8IIJ9)
Assay: primary screen, percent inhibition; read by cleavage of a fluorogenic dipeptide substrate; higher = more effect of the substance
Parameters: species or system P. falciparum D10 trophozoite lysates; single well
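Also: 30 min substrate incubation versus DMSO and 10 µM JCP410 controls.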

DPAP1, sequence (Q8IIJ9 whole entry, looked up): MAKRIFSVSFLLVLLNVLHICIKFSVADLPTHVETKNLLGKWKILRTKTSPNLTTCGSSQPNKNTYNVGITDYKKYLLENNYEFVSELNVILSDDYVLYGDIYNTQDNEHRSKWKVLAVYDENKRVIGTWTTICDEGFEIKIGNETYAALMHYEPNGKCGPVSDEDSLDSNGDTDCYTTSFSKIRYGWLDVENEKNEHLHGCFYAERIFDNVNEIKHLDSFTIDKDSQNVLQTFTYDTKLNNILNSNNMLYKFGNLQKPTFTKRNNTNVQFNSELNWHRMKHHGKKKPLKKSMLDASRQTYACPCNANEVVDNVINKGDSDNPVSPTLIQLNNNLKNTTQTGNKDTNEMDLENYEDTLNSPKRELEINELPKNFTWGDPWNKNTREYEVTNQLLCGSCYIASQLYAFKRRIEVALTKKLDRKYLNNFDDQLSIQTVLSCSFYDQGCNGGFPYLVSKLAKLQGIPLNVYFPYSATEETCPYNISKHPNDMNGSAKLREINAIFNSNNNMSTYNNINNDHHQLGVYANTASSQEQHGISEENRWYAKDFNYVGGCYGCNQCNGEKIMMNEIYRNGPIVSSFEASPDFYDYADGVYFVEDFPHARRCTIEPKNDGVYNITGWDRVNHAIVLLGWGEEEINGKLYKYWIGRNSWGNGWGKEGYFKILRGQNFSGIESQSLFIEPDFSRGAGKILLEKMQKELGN

Row | SMILES | % Inhibition @ 10 uM
1 | CC1CCN(C(=O)C(CCS(C)(=O)=O)N2Cc3ccccc3C2=O)CC1 (centres unmarked) | -0.769%
2 | COc1ccc(NCc2ccc(SC)cc2)cc1OC | -2.02%
3 | CCN(CC)C(=O)C1CCCN(Cc2cc(F)ccc2F)C1 (centres unmarked) | -1.41%
4 | O=C(NCc1ccc(C(=O)NC2CCCC2)cc1)c1cccc(Br)c1 | 1.07%
5 | CCc1ccc(Oc2nc3c(C)cccn3c(=O)c2/C=C(\C#N)C(=O)NCCCOC(C)C)cc1 | 2%
6 | Cc1ccc(C2OC3=C(C(=O)CC(C)(C)C3)C(N)=C2C#N)o1 (centres unmarked) | -4.67%
7 | COC(=O)C1=C(C)NC(=O)CC1c1cccnc1 (centres unmarked) | -3.63%
8 | O=S(=O)(c1ccccc1)c1nc(-c2ccc(Br)cc2)oc1N1CCOCC1 | -3.04%
9 | O=C(CN(c1cccc(Cl)c1)S(=O)(=O)c1ccccc1)Nc1ccccc1Cl | -1.55%
10 | COc1cc(OC)c(C2C(C#N)=C(N)OC3=C2C(=O)CC(C)(C)C3)cc1OC (centres unmarked) | 0.746%
11 | CC(=O)Nc1ccc(NC(=O)CN(c2ccccc2)S(C)(=O)=O)cc1 | 1.03%
12 | CCOC(=O)c1c(C)[nH]c(C)c1S(=O)(=O)N(Cc1ccccc1OC)C1CCN(C)CC1 | 2.58%
13 | CCCCOC(=O)Nc1nnc(C)s1 | -6.69%
14 | CC(C)C[C@H](NC(=O)N1CCN(C)CC1)C(=O)N[C@@H](CCc1ccccc1)C(=O)COc1ccccc1 | -0.778%
15 | N#Cc1c(NC(=O)CO/N=C/c2ccccc2)sc2c1CCCC2 | 3.25%
16 | Cc1ccnc(NS(=O)(=O)c2ccc3[nH]c4c(c3c2)CCCC4)c1 | -1.41%
17 | CCOC(=O)c1[nH]c2ccccc2c1C=O | -0.256%
18 | CCOC(=O)C1=C(CN(Cc2ccco2)C2CCCC2)NC(=O)NC1c1cccc(OC)c1OC (centres unmarked) | -1.3%
19 | COc1ccc(C2=NOC(C(=O)NCc3ccc(F)cc3)C2)cc1 (centres unmarked) | -1.7%
20 | CC1=C(C(=O)Nc2ccc(F)cc2F)C(c2ccc(N(C)C)cc2)C2=C(O)CC(C)(C)CC2=N1 (centres unmarked) | 1.82%
21 | Cc1coc2c(C)c3oc(=O)c(CCC(=O)NCc4ccccc4)c(C)c3cc12 | 8.61%
22 | CCOc1cc2c(cc1OCC)C(c1cc(OC)ccc1O)NCC2 (centres unmarked) | 0.475%
23 | C(=C\c1ccccc1)/CSc1nc2ccccc2[nH]1 | 5.79%
24 | NC(=O)c1c(NS(=O)(=O)c2ccc(Br)cc2)sc2c1CCCCCC2 | 17.4%
25 | CC(Oc1ccccc1)C(=O)NCc1ccccn1 (centres unmarked) | -2.83%

Row | SMILES | % Inhibition @ 10 uM
26 | CCOC(=O)c1c(/N=C/C2C(=O)CC(C)(C)CC2=O)sc2c1CCCC2 | 5.3%
27 | Cc1ccc(COC(=O)N[C@@H](CC(C)C)C(=O)NCC#N)cc1C | -4.72%
28 | Cc1ccc2c(c1)cc1c(=O)n(CC(=O)NC(C)c3ccc4c(c3)OCCO4)nc(C)n12 (centres unmarked) | 6.35%
29 | Cc1cc(C)nc(N2CCN(c3c4c(c(C#N)c5nc6ccccc6n35)CCC4)CC2)n1 | -5.7%
30 | COc1ccc(CS(=O)(=O)C[C@H](NC(=O)c2ccccc2)C(=O)NCC#N)cc1 | -1.83%
31 | CCN(CC)CCCNC(=O)C1CCN(c2nc3ccccc3n3cccc23)CC1 | -1.97%
32 | COc1ccc(-c2nc3c4cnn(-c5cccc(F)c5)c4ncn3n2)cc1OC | -2.85%
33 | O=C(NCc1ccco1)c1nnc(-c2cccc(Cl)c2)o1 | 5.43%
34 | COc1ccc(-c2noc(CC(=O)NCc3ccc4c(c3)OCO4)n2)cc1 | -2.85%
35 | O=C(CCC(=O)N1CCC(c2c[nH]c3ccccc23)(c2c[nH]c3ccccc23)CC1)N1CCOCC1 | -0.637%
36 | Cc1ccc(C(=O)NC(C)C23CC4CC(CC(C4)C2)C3)o1 (centres unmarked) | 1.69%
37 | Cn1c2ccccc2c2cnn(CC(=O)NCCCN3CCCC3=O)c(=O)c21 | 1.41%
38 | COc1ccc2nc(NC(=O)/C=C/c3ccccc3)sc2c1 | -7.35%
39 | COc1ccc(NC(=O)c2sc3ccccc3c2Cl)cc1OC | 2.7%
40 | CCN(CCCNC(=O)CCn1c(=O)c2cccn2c2cccnc21)Cc1ccccc1 | -5.43%
41 | O=C(Nc1ccc(S(=O)(=O)Nc2ccc(Cl)cc2)cc1)c1ccc(Br)o1 | 1.27%
42 | Cc1cc(C)nc(SCCC(=O)Nc2ccccc2C)n1 | 1.83%
43 | CCOC(=O)Nc1ccc2c(c1)N(C(=O)CNC1CCCCC1)c1ccccc1CC2 | -4.26%
44 | COc1ccc(-c2cc(C(=O)NCc3ccc4c(c3)OCO4)[nH]n2)cc1 | -1.3%
45 | COc1ccc(-c2noc(C(C)Oc3ccc(Cl)cc3Cl)n2)cc1OC (centres unmarked) | 2.17%
46 | COc1ccc(-c2cn3c4c(=O)n(C)c(=O)n(C)c4nc3n2-c2ccc(C)cc2)cc1 | 20.6%
47 | CCn1ncc(Cl)c1C(=O)NC(C)c1ccccc1 (centres unmarked) | 4.09%
48 | OC1=C2C(=Nc3nn(-c4ccccc4)c(O)c3C2c2ccc(C(F)(F)F)cc2)CCC1 (centres unmarked) | 5.3%
49 | Cc1ccc(Cl)cc1NC(=O)CCC(=O)Nc1cc(Cl)ccc1C | -3.18%
50 | O=C(c1cccnc1)N1CCN(Cc2ccncc2)CC1 | -8.85%

Row | SMILES | % Inhibition @ 10 uM
51 | COc1ccc(C2=NN(CC(=O)NCc3ccco3)C(=O)CC2)cc1 | 3.24%
52 | COc1ccc(S(=O)(=O)N(Cc2ccccc2)c2ccccn2)cc1 | 5.29%
53 | CN1CCN(C(=O)C2CCCCC2C(=O)O)CC1 (centres unmarked) | 0.847%
54 | CC1CCCN(C(=O)c2cc(-c3ccco3)[nH]n2)C1 (centres unmarked) | 4.8%
55 | COCCNC(=O)c1nnc(-c2cccc(Cl)c2)o1 | 2.5%
56 | CC(C)CC(C(=O)N1CCC2(CC1)OCCO2)N1Cc2ccccc2C1=O (centres unmarked) | 1.86%
57 | CN(c1ccc(C(=O)Nc2ccccc2C(=O)NC2CCCCC2)cc1)S(C)(=O)=O | 3.37%
58 | COc1ccc(-c2nn(CC(=O)O)cc2/C=C/c2cc(C(F)(F)F)nc(O)n2)cc1 | 1.76%
59 | Cc1ccccc1OCCCCCN1CCOCC1 | 1.13%
60 | COC(=O)c1cc(S(=O)(=O)N(Cc2ccc(F)cc2)Cc2cccnc2)c[nH]1 | 1.26%
61 | COc1ccc(-c2csc3ncn(CC(=O)Nc4cccc(C)c4C)c(=O)c23)cc1 | 6.05%
62 | CCCS(=O)(=O)c1nc(S(=O)(=O)c2ccc(C)cc2)c(NCC2CCCO2)s1 (centres unmarked) | -5.89%
63 | CCc1c(C)sc(NC(=O)COc2ccc(Cl)cc2)c1C#N | -1.07%
64 | O=C(O)C1CCCCC1C(=O)Nc1nc(-c2ccc(F)cc2)cs1 (centres unmarked) | -3.71%
65 | O=C(c1nc2ncccn2n1)N(C1CCCCC1)C1CCCCC1 | -5.41%
66 | CCOC(=O)C1=C(O)/C(=C\c2sccc2C)N=C1C | 4.26%
67 | Cc1nc(C)c2c(O)cc(-c3ccccc3)nc2n1 | 3.83%
68 | O=C(c1csc2c1CCCC2)N1CCC2(CC1)OCCO2 | -1.44%
69 | COc1ccc(-c2nnc(SCC(=O)N3CC(C)CC(C)C3)o2)cc1OC (centres unmarked) | 4.05%
70 | COc1ccc(CNS(=O)(=O)c2ccc(OC)c(Cl)c2Cl)cc1 | -5.11%
71 | CCOC(=O)N1CCC(Nc2nc3ccccc3nc2NS(=O)(=O)c2ccc(Cl)cc2)CC1 | -5.76%
72 | O=S(=O)(NCc1ccccc1)c1ccc2nc(O)ccc2c1 | -5.74%
73 | Cc1cccc2c1-c1sc(C(=O)NCCCN3CCOCC3)cc1CO2 | -1.58%
74 | CCOc1ccc(C2=C/C(=C3/N=C(c4ccco4)OC3=O)c3ccccc3O2)cc1 | 5.12%
75 | COc1ccc(N2C(=O)CC(NCC34CC5CC(CC(C5)C3)C4)C2=O)cc1 (centres unmarked) | 0.231%

Row | SMILES | % Inhibition @ 10 uM
76 | COc1ccc(Br)cc1CN(C)C1CCN(C)CC1 | 2.47%
77 | CCC(C)(C)NS(=O)(=O)c1c[nH]c(C(=O)OC)c1 | 4.14%
78 | CN1CCN(CN2C(=O)C(=O)c3ccccc32)CC1 | 0.501%
79 | O=C(c1ccco1)N1CCCN(C(=O)c2ccco2)CC1 | -2.42%
80 | Cc1ccc(-c2[nH]nc3c2C2(C(=O)Nc4ccc(Cl)cc42)C(C#N)=C(N)O3)cc1 (centres unmarked) | 6.98%
81 | COc1cc(OC)c(OC)cc1CN1CCCN(C)CC1 | 1.4%
82 | Cc1nc(O)nc(O)c1S(=O)(=O)N1CCc2ccccc2C1 | -1.08%
83 | Cc1nc2ccc(S(=O)(=O)NC(CC(C)C)C(=O)N3CCn4c3nc3ccccc34)cc2s1 (centres unmarked) | 5.32%
84 | CCn1c(C(=O)OC)cc2oc(C)cc21 | 17.8%
85 | CC(C)(C)c1ccc(C(=O)N(Cc2ccccc2F)C2CCS(=O)(=O)C2)cc1 (centres unmarked) | 3.62%
86 | O=C(CN1C(=O)c2ccccc2S1(=O)=O)NCCSCc1ccc(Cl)cc1 | -5.48% and -3.65%
87 | CC1=C(C(=O)Nc2ccc(Br)cn2)C(c2cn(C)nc2C)C2=C(O)CC(C)(C)CC2=N1 (centres unmarked) | 0.385%
88 | CC1=NNc2nc3c(c(=O)n(C)c(=O)n3C)n2C1C (centres unmarked) | -1.47%
89 | CCOC(=O)CN1CCCC1=C(C#N)C#N | 3.47%
90 | Cc1cc(Cl)ccc1OCCOCCN1CCC(C)CC1 | -1.22%
91 | O=C(/C=C/c1ccco1)NCCc1cccc(F)c1 | -3.21%
92 | Cc1ccccc1-c1nc2s/c(=C\c3ccc(F)cc3)c(=O)n2n1 | -2.98%
93 | CCc1cc2c(=O)c(Oc3ccccc3)c(C)oc2cc1OC | 0.161%
94 | Cc1ccc(NC(=O)CSc2nc3ccccc3[nH]2)cc1 | 3.69%
95 | CCN1CCCC1CNC(=O)Nc1cn(C)c(=O)c2ccccc12 (centres unmarked) | 3.48%
96 | COCCCNC(=O)c1cc(C)nc2c1c(C)nn2-c1ccc(C)cc1 | 2.73%
97 | CCc1ccc(COC(=O)N[C@@H](CC(C)C)C(=O)NCC#N)cc1 | -3.04%
98 | CCOC(=O)c1cc2c(=O)n3ccccc3nc2n(C2CCCCC2)/c1=N\C(C)=O | -8.38%
